{"source": "PubChem BioAssay AID463173", "about": "(ICCB-Longwood Screening Facility, Harvard Medical School, 2010)", "note": "In all, about 52,000 compounds went through this assay and about 4,300 (8.3%) were called active. Cut-off read from the data, not from the text of the source: active = survival mostly below about 52% (no sharp cut-off); inactive = mostly above about 56%. Some of the results follow.", "data": [{"system": "DeltatarO mutant", "experiment": "S. aureus survival, RN4220 and DeltatarO strains – OD600, teichoic acid synthesis inhibitors, primary screen (AID 463173)", "conditions": "S. aureus RN4220 wild type/DeltatarO growth, OD600, 18 h, stronger effect = lower value, screened at 18.75 µg/mL (by protocol)", "values": [{"smiles": "CCn1c(C)c(C)c2cc(C(=O)NCCc3cc(OC)c(OC)c(OC)c3)ccc21", "survival": "inactive: 67%"}, {"smiles": "Cc1cccc(C(=O)Nc2cccc(C(=O)OCc3cc(=O)n4c5c(sc4n3)CCCC5)c2)c1", "survival": "inactive: 144%"}, {"smiles": "CCNC(=S)N1CCN(C)CC1", "survival": "inactive: 96%"}, {"smiles": "CCCc1nc2ccccc2n1CC(O)COc1ccccc1", "note": "(centres undefined)", "survival": "inactive: 69%"}, {"smiles": "CCOC(=O)Cn1c(=O)oc2cc(S(=O)(=O)Nc3cc(OC)cc(OC)c3)ccc21", "survival": "inactive: 74%"}, {"smiles": "COc1ccccc1C(=O)NCc1ccc2c(c1)CCN2C(=O)c1cccc(C)c1", "survival": "inactive: 77%"}, {"smiles": "COc1ccc(N2CCN(C(=O)C3CCN(S(=O)(=O)c4cnc[nH]4)CC3)CC2)cc1", "survival": "inactive: 134%"}, {"smiles": "O=C(c1cccc(S(=O)(=O)N2CCOCC2)c1)N1CCCCC1", "survival": "inactive: 97%"}, {"smiles": "CCc1ccccc1Nc1nn2c(=O)c3ccc(C(=O)NCc4cccs4)cc3nc2s1", "survival": "inactive: 70%"}, {"smiles": "CCc1ccc2[nH]c(=O)c(CN(CCN(C)C)C(=O)Nc3ccccc3Cl)cc2c1", "survival": "inactive: 97%"}, {"smiles": "CNC(=O)c1cc2c(n(-c3ccc(C)cc3)c1=O)CC(C)(C)CC2=O", "survival": "inactive: 93%"}, {"smiles": "Cc1cc(C)c(Nc2nn3c(=O)c4cc5c(cc4nc3s2)OCO5)c(C)c1", "survival": "inactive: 51%"}, {"smiles": "O=C(Nc1ccc2nc(SCC(=O)N3CCOCC3)sc2c1)c1ccc(F)cc1", "survival": "inactive: 82%"}, {"smiles": "COc1cccc(C(=O)Nc2ccc3oc(-c4ccc5ccccc5c4)nc3c2)c1", "survival": "inactive: 55%"}, {"smiles": "COc1cc(OC)cc(-c2nc3nc(C)c(CCC(=O)Nc4ccc(Cl)cc4)c(C)n3n2)c1", "survival": "inactive: 65%"}, {"smiles": "CNC(=O)C1CC(=O)N(c2ccc(OC)cc2)C1", "note": "(centres undefined)", "survival": "inactive: 97%"}, {"smiles": "COc1ccc(-c2c3c(=O)n(C)c(=O)n(C)c3c3c(-c4ccccc4)nc4ccccc4n23)cc1", "survival": "inactive: 77%"}, {"smiles": "O=C(Nc1ccccc1F)C(Cc1ccccc1)n1cccc1", "note": "(centres undefined)", "survival": "inactive: 77%"}, {"smiles": "COc1ccc(Cn2c(C(=O)O)c(CNCc3cccs3)c3ccc(C)cc32)cc1", "survival": "inactive: 89%"}, {"smiles": "COc1ccccc1N1CCN(c2cc(N3CCCC3)nc(C)n2)CC1", "survival": "inactive: 98%"}, {"smiles": "Cc1ccc2c(=O)cc(C(=O)Nc3nnc(CC(C)C)s3)oc2c1C", "survival": "inactive: 61%"}, {"smiles": "CCc1ccc(NC(=O)Cn2c(=O)c(-c3ccccc3NC(C)=O)nc3ccccc32)cc1", "survival": "active: 44%"}, {"smiles": "O=C(O)CSCCn1cccn1", "survival": "inactive: 93%"}, {"smiles": "Oc1c(C(c2ccc(Cl)cc2Cl)N2CCOCC2)sc2nc(-c3ccco3)nn12", "note": "(centres undefined)", "survival": "inactive: 91%"}, {"smiles": "CCOC(=O)c1cc2c(ccn2-c2ccc(F)cc2)n1CC(=O)c1ccc2c(c1)OCCO2", "survival": "inactive: 100%"}, {"smiles": "CCOc1ccc(S(=O)(=O)N(CC(=O)NCCSCc2ccc(C)cc2)c2ccccc2)cc1", "survival": "inactive: 77%"}, {"smiles": "CCn1ccc2cc(S(=O)(=O)N3CCCN(C(=O)Nc4ccccc4C(F)(F)F)CC3)ccc21", "survival": "inactive: 135%"}, {"smiles": "Cc1ccsc1CNCCCO", "survival": "inactive: 92%"}, {"smiles": "Cc1ccc(C)n1-c1nnc(N2CCC(C(=O)Nc3ccccc3Br)CC2)s1", "survival": "inactive: 91%"}, {"smiles": "CCc1ccc(NC(=O)c2ccc3c(c2)N(Cc2ccc(C)cc2)CCS3)cc1", "survival": "inactive: 77%"}, {"smiles": "CCn1c(SCC(=O)Nc2ccc(C)cc2Br)nnc1-c1nonc1NC(C)=O", "survival": "inactive: 44%"}, {"smiles": "O=C(CC1N=C2c3ccccc3N=C(SCC(=O)Nc3cccc(Cl)c3)N2C1=O)NCc1cccs1", "note": "(centres undefined)", "survival": "inactive: 119%"}, {"smiles": "Cc1cccc(Cn2c(=O)n(CCC(=O)NCc3ccc4c(c3)OCO4)c(=O)c3sccc32)c1", "survival": "inactive: 75%"}, {"smiles": "CC1CCN(S(=O)(=O)c2ccc(N3CCCCS3(=O)=O)cc2)CC1", "survival": "inactive: 71%"}, {"smiles": "COc1ccc(CCNC(=O)Cn2cc(S(=O)(=O)Cc3ccccc3F)c3ccccc32)cc1OC", "survival": "inactive: 80%"}, {"smiles": "COc1ccccc1CNc1cc(-c2ccccc2)nc2nncn12", "survival": "inactive: 66%"}, {"smiles": "CCOc1cccc(C(=O)Nc2c(C(=O)c3ccc(OC)cc3)oc3ccccc23)c1", "survival": "active: 28%"}, {"smiles": "NC(=O)c1ccc(NC(=O)c2cc3ccccc3oc2=O)cc1", "survival": "inactive: 81%"}, {"smiles": "CC(=O)c1ccc(C(=O)N(CCCN(C)C)c2nc3c(C)c(C)ccc3s2)cc1", "survival": "inactive: 108%"}, {"smiles": "COc1ccc(N2Cc3cccc(C(=O)Nc4ccc(C(C)C)cc4)c3C2=O)cc1", "survival": "inactive: 70%"}, {"smiles": "CS(=O)(=O)NCC(c1ccco1)N1CCN(c2ccccc2)CC1", "note": "(centres undefined)", "survival": "inactive: 62%"}, {"smiles": "CCc1ccccc1N(C)C(=O)C1CCCN(c2ncnc3onc(-c4ccc(F)cc4)c23)C1", "note": "(centres undefined)", "survival": "inactive: 80%"}, {"smiles": "Cc1ccc(OCCn2c(CNc3cccc(C)c3)nc3ccccc32)cc1", "survival": "active: -3%"}, {"smiles": "CCCN1CCc2nc(N3CCN(CC)CC3)ncc2C1", "survival": "inactive: 72%"}, {"smiles": "CC1(C)Cc2c(sc3ncn4nc(CSc5nc6ccccc6o5)nc4c23)C(C)(C)N1", "survival": "inactive: 83%"}, {"smiles": "C=Cn1c(C(=O)O)cc(CC)c1-c1ccccc1", "survival": "inactive: 80%"}, {"smiles": "Cc1ccc(NC(=O)c2sc(-n3nc(C)c(CCC(C)C)c3C)nc2C)cc1C", "survival": "inactive: 57%"}, {"smiles": "CCCNc1nc2ccccc2s1", "survival": "inactive: 66%"}, {"smiles": "O=C(CN(c1ccc(Cl)c(C(F)(F)F)c1)S(=O)(=O)c1ccccc1)N1CCc2ccccc2C1", "survival": "inactive: 42%"}, {"smiles": "O=C(c1ccc(Cl)cc1)N1CCC(c2nc(-c3ccc(F)cc3)no2)CC1", "survival": "inactive: 106%"}, {"smiles": "CCn1nnnc1SCC(=O)c1ccc(OC)cc1OC", "survival": "inactive: 74%"}, {"smiles": "COc1ccc(NC(=O)CSc2ncc3c(n2)-c2cc(Cl)ccc2N(Cc2ccccc2F)S3(=O)=O)cc1", "survival": "inactive: 70%"}, {"smiles": "CCCSc1ncc(Cl)c(C(=O)Nc2ccc(S(=O)(=O)Nc3ncccn3)cc2)n1", "survival": "inactive: 67%"}, {"smiles": "CC(=O)Nc1ccc(S(=O)(=O)c2cc(O)ccc2O)cc1", "survival": "inactive: 75%"}, {"smiles": "Cc1cc(C)c2c(=O)cc(C(=O)Nc3sc4c(c3C(=O)NCc3ccccc3)CCCC4)oc2c1", "survival": "inactive: 57%"}, {"smiles": "CC1CC(C(F)(F)F)n2ncc(C(=O)O)c2N1", "note": "(centres undefined)", "survival": "inactive: 101%"}, {"smiles": "CC(C)c1cc(C(F)(F)F)n2nc(C(=O)O)cc2n1", "survival": "inactive: 90%"}, {"smiles": "O=C(Nc1ccc2oc(-c3ccccc3F)nc2c1)c1ccccc1Cl", "survival": "active: 49%"}, {"smiles": "Cc1cccc(CSc2ncc(CO)n2Cc2ccc(F)cc2)c1", "survival": "inactive: 130%"}]}]}
